Assay results from the antibiotic and cytotoxicity screens of Wong et al. (2023).
The other results are listed elsewhere or left out.

system: S. aureus RN4220; assay: growth inhibition call (relative growth <= 0.2); settings: 50 µM

Compound | growth inhibition call
COc1ccc(-c2ccc3c(c2)O[C@H](CN(C)CC2CCOCC2)[C@H](C)CN([C@H](C)CO)S3(=O)=O)cc1 | inactive
C[C@H](CO)N1C[C@H](C)[C@@H](CN(C)C(=O)Nc2ccc(C(F)(F)F)cc2)Oc2ccc(NC(=O)Nc3ccc(C(F)(F)F)cc3)cc2C1=O | inactive
COc1ccc(NC(=O)N(C)C[C@H]2Oc3ccc(NC(=O)Nc4cccc5ccccc45)cc3CC(=O)N([C@H](C)CO)C[C@H]2C)cc1 | inactive
NCC[C@H]1CC[C@H](NC(=O)Nc2ccc(F)cc2)[C@@H](CO)O1 | inactive
CN(C)CCCNC(=O)C[C@H]1CC[C@@H]2[C@H](COc3ccc(NC(=O)NC4CCCC4)cc3C(=O)N2C)O1 | inactive
C[C@@H]1CN([C@@H](C)CO)C(=O)c2cc(NC(=O)Nc3ccc(C(F)(F)F)cc3)ccc2O[C@H]1CN(C)Cc1ccccc1 | inactive
CCC(=O)NNC(=O)c1cccc(O)c1 | inactive
Cc1noc(C)c1NC(=O)N(C)C[C@@H]1Oc2ccc(NS(=O)(=O)c3c(C)noc3C)cc2CC(=O)N([C@H](C)CO)C[C@H]1C | inactive
COc1ccc(S(=O)(=O)N(C)C[C@@H]2OCCCC[C@H](C)Oc3ccc(NC(=O)C4CCCCC4)cc3C(=O)N([C@@H](C)CO)C[C@H]2C)cc1 | inactive
C[C@H]1CN([C@@H](C)CO)C(=O)CCCn2nncc2CO[C@@H]1CN(C)S(=O)(=O)c1ccc(Cl)cc1 | inactive
CN1C(=O)c2cc(NC(=O)C3CCOCC3)ccc2OC[C@@H]2O[C@@H](CC(=O)NCCc3ccncc3)CC[C@H]21 | inactive
Cc1noc(C)c1S(=O)(=O)Nc1ccc2c(c1)C(=O)N([C@@H](C)CO)C[C@H](C)[C@@H](CN(C)C(=O)Nc1ccc(F)cc1)OCCCC[C@H](C)O2 | inactive
C=CCNS(=O)(=O)c1cccc2nonc12 | inactive
CCN1[C@@H]2O[C@@H]3O[C@H]4[C@H](O[C@H]3O[C@@H]2N(CC)S1(=O)=O)N(CC)S(=O)(=O)N4CC | inactive
CN(CC(=O)O)C(=N)N | inactive
Cc1noc(C)c1NC(=O)N(C)C[C@@H]1Oc2ccc(NS(=O)(=O)c3c(C)noc3C)cc2CC(=O)N([C@H](C)CO)C[C@@H]1C | inactive
C[C@H](CO)N1C[C@H](C)[C@H](CN(C)S(C)(=O)=O)Oc2ccc(NC(=O)CCC(F)(F)F)cc2CC1=O | inactive
C[C@H](CO)N1C[C@H](C)[C@H](CN(C)C(=O)CCC(F)(F)F)OCCCC[C@H](C)Oc2ccc(NS(=O)(=O)c3ccc(F)cc3)cc2C1=O | inactive
C[C@@H]1CN([C@@H](C)CO)C(=O)CCCn2nncc2CO[C@@H]1CN(C)C(=O)Nc1ccc2c(c1)OCO2 | inactive
CC1(C)OC2CC3C4CCC5=CC(=O)C=CC5(C)C4C(O)CC3(C)C2(C(=O)CO)O1 (stereo not given) | inactive

Compound | growth inhibition call
C[C@H]1CCCCO[C@H](CN(C)C(=O)Nc2cccc3ccccc23)[C@@H](C)CN([C@@H](C)CO)C(=O)c2cc(NS(=O)(=O)c3ccc(F)cc3)ccc2O1 | inactive
N[C@@H]1[C@H]2CN(c3nc4c(cc3F)c(=O)c(C(=O)O)cn4-c3ccc(F)cc3F)C[C@@H]12 | active
COc1ccc2c3c([nH]c2c1)[C@@H](CO)N(CC1CCOCC1)C[C@]13CCN(CC1)C(=O)C1CCOCC1 | inactive
COc1ccc(NC(=O)Nc2ccc3c(c2)C(=O)N([C@@H](C)CO)C[C@@H](C)[C@@H](CN(C)C(=O)Nc2ccc4c(c2)OCO4)OCCCC[C@@H](C)O3)cc1 | inactive
C[C@@H]1CN([C@H](C)CO)C(=O)c2cccc(NC(=O)NC3CCCCC3)c2O[C@@H]1CN(C)Cc1ccc(Oc2ccccc2)cc1 | inactive
COCC(=O)N1C[C@]2(C1)CN([C@H](CO)c1c2c2ccc(cc2n1C)OC)C(=O)CN1CCOCC1 | inactive
Cc1nnc(Nc2cccc([C@H]3CCCN(C(=O)CN)C3)n2)s1 | inactive
Cn1c(=O)c2c(nc3n2CC=NN3)n(C)c1=O | inactive
C[C@H](CO)N1C[C@H](C)[C@H](CN(C)Cc2ccccc2)Oc2ccc(NC(=O)CCN3CCOCC3)cc2C1=O | inactive
C=CCN1C[C@H](C(=O)O)CC1=O | inactive
C[C@H](CO)N1C[C@H](C)[C@@H](CN(C)Cc2ccc(C(=O)Nc3ccccc3N)cc2)Oc2c(NS(C)(=O)=O)cccc2C1=O | inactive
C[C@@H]1CN([C@@H](C)CO)C(=O)c2cc(NC(=O)CCN3CCOCC3)ccc2O[C@@H]1CN(C)Cc1ccc2c(c1)OCO2 | inactive
COc1ccc2c3c([nH]c2c1)[C@H](CO)N(C[C@]13CCN(CC1)C(=O)c1ccccc1F)C(=O)Nc1ccccc1F | inactive
Cc1ccc(S(=O)(=O)Nc2ccc3c(c2)C(=O)N([C@@H](C)CO)C[C@@H](C)[C@H](CN(C)S(C)(=O)=O)O3)cc1 | inactive
C[C@@H]1CN([C@@H](C)CO)S(=O)(=O)c2ccc(-c3cncnc3)cc2O[C@@H]1CN(C)C(=O)c1ccc2c(c1)OCO2 | inactive
C[C@@H]1CCCCO[C@@H](CN(C)C(=O)C2CCCCC2)[C@@H](C)CN([C@H](C)CO)C(=O)c2cc(NS(=O)(=O)c3cccs3)ccc2O1 | inactive
C[C@H]1CN([C@@H](C)CO)C(=O)c2cc(NS(=O)(=O)c3ccccc3)ccc2O[C@@H]1CN(C)Cc1ccc(Oc2ccccc2)cc1 | inactive
C[C@@H]1CN([C@@H](C)CO)C(=O)c2c(c3ccccc3n2C)-c2ccccc2CO[C@H]1CN(C)Cc1ccc(F)cc1 | inactive
Nc1cc(Cl)ncn1 | inactive
CCS(=O)(=O)Nc1ccc2c(c1)C(=O)N(C)[C@H]1CC[C@@H](CC(=O)NCCCN3CCOCC3)O[C@H]1CO2 | inactive
